# Hit rate of the full screen: of about 310,000 compounds, about 14,000 (4.5%) showed an effect of 50% or more. The effect is printed as a negative number. The list shows a part of the results.
# Biological target: human ether-à-go-go-related gene (hERG) potassium channel (human, UniProt Q12809)
# Assay: primary screen, population patch clamp on CHO cells stably expressing hERG
# 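Note: peak tail current of the secondary pulse compared with the same well before compound.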
# Sequence of human ether-à-go-go-related gene (hERG) potassium channel (Q12809 whole entry, looked up): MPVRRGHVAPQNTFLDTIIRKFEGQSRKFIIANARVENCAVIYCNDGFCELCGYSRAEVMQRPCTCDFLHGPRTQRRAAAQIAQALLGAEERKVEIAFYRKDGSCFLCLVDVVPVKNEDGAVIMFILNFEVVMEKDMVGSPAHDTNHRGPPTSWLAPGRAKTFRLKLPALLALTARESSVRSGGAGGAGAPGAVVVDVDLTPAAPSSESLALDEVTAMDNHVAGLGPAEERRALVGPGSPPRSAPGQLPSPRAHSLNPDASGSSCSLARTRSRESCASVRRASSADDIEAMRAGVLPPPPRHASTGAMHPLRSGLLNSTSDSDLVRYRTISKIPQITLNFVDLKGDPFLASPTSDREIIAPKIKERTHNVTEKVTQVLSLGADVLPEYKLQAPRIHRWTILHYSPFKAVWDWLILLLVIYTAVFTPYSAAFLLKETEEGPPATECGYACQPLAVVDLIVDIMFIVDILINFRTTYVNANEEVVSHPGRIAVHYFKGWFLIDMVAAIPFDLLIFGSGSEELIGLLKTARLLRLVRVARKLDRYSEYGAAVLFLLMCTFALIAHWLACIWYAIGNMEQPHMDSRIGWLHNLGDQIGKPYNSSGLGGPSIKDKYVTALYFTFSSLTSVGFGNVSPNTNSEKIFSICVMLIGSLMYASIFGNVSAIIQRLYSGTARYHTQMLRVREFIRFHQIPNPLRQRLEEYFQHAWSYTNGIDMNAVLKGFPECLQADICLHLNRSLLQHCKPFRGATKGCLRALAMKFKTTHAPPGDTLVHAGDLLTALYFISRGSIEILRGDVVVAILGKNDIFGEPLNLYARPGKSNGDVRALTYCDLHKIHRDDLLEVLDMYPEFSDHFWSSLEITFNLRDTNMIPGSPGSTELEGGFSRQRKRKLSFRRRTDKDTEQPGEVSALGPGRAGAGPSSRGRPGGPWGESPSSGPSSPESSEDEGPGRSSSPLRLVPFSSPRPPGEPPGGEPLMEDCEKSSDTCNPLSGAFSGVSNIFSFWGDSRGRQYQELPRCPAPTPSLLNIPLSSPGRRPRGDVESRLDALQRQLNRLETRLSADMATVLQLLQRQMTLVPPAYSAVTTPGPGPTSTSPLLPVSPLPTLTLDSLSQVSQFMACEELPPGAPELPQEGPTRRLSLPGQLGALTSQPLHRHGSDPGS
row,Compound,"hERG current change (%, negative = inhibition) at 10uM [%]"
1,CCOc1ccc2sc(NS(=O)(=O)c3ccc(OC)c(OC)c3)nc2c1,10.2
2,CCCc1cc(=O)n2[nH]cnc2n1,-18.8
3,Cc1ccccc1C(=O)N/N=C/c1ccc([N+](=O)[O-])s1,7.25
4,CCC[C@H]1COCCS(=O)(=O)N1Cc1ccccc1F,1.68
5,Cc1cc(C(=O)CN2C(=O)C(=O)N(C)C2=O)c(C)n1-c1cccc(S(=O)(=O)N2CCOCC2)c1,-63.4
6,COc1ccccc1OCC(=O)Nc1ccccc1C(=O)NC1CC1,-8.86
7,CCC(COC(=O)c1cc(OC)c(OC)c(OC)c1)(c1ccccc1)N(C)C.O=C(O)/C=C\C(=O)O (stereo not drawn),-13.9
8,CS(=O)(=O)N1CCc2cc(C(=O)N3CCCCC3)ccc21,-7.42
9,COc1ccc(C2c3[nH]c4ccccc4c3C[C@H]3C(=O)N(CCCO)CC(=O)N23)cc1OC (stereo partly drawn),10.6
10,CCOc1ccc(NC(=O)C(C)Sc2nccn2C)cc1 (stereo not drawn),6.78
11,CC12CCC(=O)N1C(C(=O)N1CCN(S(=O)(=O)c3ccc(Br)cc3Cl)CC1)CS2 (stereo not drawn),-18
12,CC(=O)Nc1ccc(S(=O)(=O)NNC(=O)CCC(=O)Nc2cc(C)ccc2C)cc1,5.31
13,CC1=C/C(=N\NC(=O)c2ccc(O)cc2)CC1,20.8
14,O=C(NC(=S)NNC(=O)c1ccc(Cl)cc1Cl)c1cccnc1,10.4
15,O=[N+]([O-])c1cc(Br)cc(C=Nc2ccc3c(c2)OCO3)c1O,9.06
16,O=C(Nc1ccc([N+](=O)[O-])c(NC(=O)c2cccnc2)c1)c1cccnc1,-10.9
17,CC1(C(=O)O)CCC(C(=O)Nc2ccc(S(N)(=O)=O)cc2)C1(C)C (stereo not drawn),10.8
18,COc1ccc(S(=O)(=O)NCc2csc(C)n2)cc1,8.86
19,O=C(COC(=O)C1=NN(c2ccccc2)C(=O)CC1)NCc1ccccc1Cl,-17.4
20,OCc1cccc(Nc2ncnc3sc4c(c23)CCCCC4)c1,-19.3
21,CC(C)Cc1ccc(CN2CCCC(NC(=O)CCn3cnnn3)C2)cc1 (stereo not drawn),-46.2
22,O=C1CC(SCCc2nc3ccccc3[nH]2)C(=O)N1c1ccc(Cl)cc1 (stereo not drawn),-33.3

row,Compound,"hERG current change (%, negative = inhibition) at 10uM [%]"
1,CC(=O)Cc1nsc(NC(=O)c2cccs2)n1,14.8
2,Cc1ccc(NS(=O)(=O)c2ccc(C(=O)N3CCCCCCC3)cc2)cc1,8.75
3,CC1CCCCC1NC(=O)C1CC=CCC1C(=O)O (stereo not drawn),10.7
4,CCCc1ccc2oc(C(=O)N3CCNC(=O)C3CC(=O)OC)c(C)c2c1 (stereo not drawn),-5.55
5,CCCCCC(=O)NC(Cc1ccc(OC)c([N+](=O)[O-])c1)C(=O)O (stereo not drawn),13.8
6,COc1ccc(-n2c(C)nc(N)c2C(=O)c2ccccc2)cc1,-0.184
7,O=C(OCc1nc2ccccc2s1)[C@@H]1CCCN1S(=O)(=O)c1ccccc1F,-1.01
8,O=C(Nc1cc(C(F)(F)F)cc(C(F)(F)F)c1)c1ccc(Cn2cc(C(F)(F)F)ccc2=O)cc1,22
9,Cc1sc(NC(=O)c2ccco2)nc1-c1ccccc1,-7.37
10,COCCn1c(SCC(=O)NC(C)c2ccccc2)nc2ccccc21 (stereo not drawn),-5.77
11,O=C(CCn1cccc1)Nc1cccc(F)c1,0.101
12,Cc1ccc(S(=O)(=O)c2nc(Cc3ccccc3)oc2N2CCOCC2)cc1,-1.73
13,CC(=O)c1cccc(NC(=O)c2ccc(C)o2)c1,10.1
14,COc1cc(/C=C2\SC(=S)N(NC(=O)c3ccncc3)C2=O)ccc1O,4.81
15,Br.CCN(CC)CCn1c(=N)n(CC(=O)c2ccc(Br)s2)c2ccccc21,-76.9
16,O=C(Nc1ccncc1)C1CCN(S(=O)(=O)c2cccs2)CC1,5.26
17,COc1ccc(-c2nnc(SC(C)C(=O)NC3CC3)o2)cc1 (stereo not drawn),8.81
18,Cc1ccc(/C=C/C(=O)Nn2cnnc2)cc1,5.24
19,COCC(C)N1CC(O)=C(c2nc(-c3ccc(Cl)cc3)cs2)C1=N (stereo not drawn),19.9
20,ON=C1CCN(c2ncc(C(F)(F)F)cc2Cl)CC1,-11.7
21,NNC(=O)c1oc2nc(-c3ccccc3)cc(-c3ccco3)c2c1N,0.558
22,O=C(OCc1ccccc1)/C(=C/c1cccc2ccccc12)NC(=O)c1ccccc1,0.346

row,Compound,"hERG current change (%, negative = inhibition) at 10uM [%]"
1,O=C(CSc1ccc(F)cc1)NNC(=O)c1ccccc1Br,13
2,CN1C(=O)C(=Cc2ccc(N3CCCCCC3)o2)C(=O)N(C)C1=S,6.46
3,O=C(Nc1c(C(=O)N2CCOCC2)cnn1-c1ccccc1)c1cccc(F)c1,6.38
4,O=C(CN(Cc1ccc(F)cc1)C(=O)c1csnn1)NCc1ccc2c(c1)OCO2,-64.5
5,COc1ccc(CNC(=O)[C@@H]2CC=C[C@@H]3CCN(Cc4ccccc4)C(=O)[C@@H]32)cc1,5.37
6,CCC(C)N(C(=O)CSc1nc(C)nc2ccccc12)C1CCS(=O)(=O)C1 (stereo not drawn),-30.1
7,CCN(CC)S(=O)(=O)c1ccc(Cl)c(NC(=O)COC(=O)c2ccc([N+](=O)[O-])o2)c1,-16.7
8,Cc1ccc(-c2c(C#N)c(N)nc3c2CCCCC3)cc1,2.26
9,COc1ccc(CN2CCCC(C(=O)c3cccc(C(F)(F)F)c3)C2)cc1O (stereo not drawn),-62.2
10,CCOC(=O)N1CCN(C(=O)c2ccc(C)c(S(=O)(=O)Nc3cccc(C)c3C)c2)CC1,-43.1
11,O=C/C(=C\Nc1ccc(C(=O)N2CCOCC2)cc1)c1nc2ccccc2o1,-15.4
12,COc1cccc(CNS(=O)(=O)c2ccc(S(=O)(=O)N3CCCC3)cc2)c1,7.51
13,COC(=O)n1c(=O)oc2ccccc21,7.08
14,CSc1nsc(NC(=O)OCc2ccc(Cl)cc2)n1,14.2
15,CCn1c(SCC(=O)NC(=O)NC(C)(C)C)nc2ccccc21,4.41
16,CCCNC(=O)C(Cc1ccc(OC)cc1)NC(=O)c1ccc(Cl)cc1 (stereo not drawn),-3.23
17,CCOC(=O)c1c(C)n(C)c2ccc(OC)c(NC(=O)CCN3CCC(Cc4ccccc4)CC3)c12,-34.3
18,COc1cc(O)cc2c1C(=O)OC(C)CCCC(=O)CCC/C=C\2 (stereo not drawn),13.7
19,CC1CC(NC(=O)C2C3CCC(O3)C2C(=O)O)CC(C)(C)C1 (stereo not drawn),-0.116
20,Cc1cc(C)c(NC(=O)c2ccccc2N(C)S(C)(=O)=O)c(C)c1,10.3
21,N#CCC(=N)N1CCN(c2cccc(Cl)c2)CC1,-42
22,O=C(COc1ccc(S(=O)(=O)N2CCCCC2)cc1)NCc1cccnc1,3.06

row,Compound,"hERG current change (%, negative = inhibition) at 10uM [%]"
1,O=C(Nc1ccc(Cl)cc1)Nc1ccc(N2CCOCC2)cc1,16.6
2,CC(=O)c1c(C)[nH]c(C(=O)Nc2ccccc2N2CCOCC2)c1C,0.917
3,CC(=O)Nc1ccc(N/C=C(\C#N)S(=O)(=O)c2ccc(Cl)cc2)cc1,12.6
4,COc1ccc(/C=C2\SC(=S)N(CCC(=O)NC3C=CS(=O)(=O)C3)C2=O)cc1 (stereo not drawn),-3.89
5,CN(CC(=O)Nc1ccccc1Br)C(=O)C(Cc1ccccc1)NC(=O)c1ccccc1 (stereo not drawn),-16.8
6,CS(=O)(=O)c1cnc(-c2cccnc2)nc1N,24.1
7,O=Cc1ccccc1Oc1ccccc1,11.5
8,COc1cc(CN2CCN(S(=O)(=O)c3ccc(NC(C)=O)cc3)CC2)cc(OC)c1O.O=C(O)C(=O)O,-5.22
9,CCOC(=O)c1c(NC(=O)COc2ccccc2)sc2c1CC(C)(C)NC2(C)C,14.3
10,Cc1cccc(NC(=O)COC(=O)c2cc(C)n(C3CC3)c2C)c1,-0.632
11,COCCNC(=O)C(c1ccc(F)cc1)N(Cc1cccs1)C(=O)CCC(=O)Nc1ccccn1 (stereo not drawn),15.2
12,COc1ccc(C(=O)NC(=S)Nc2cc(C)ccn2)cc1[N+](=O)[O-],24.3
13,CCc1ccc(NC(=O)C(CC)Sc2nc3cc4c(cc3c(=O)n2Cc2ccco2)OCO4)cc1 (stereo not drawn),-9.39
14,COc1ccccc1N1CCN(C(=O)c2cc(-c3ccc(Br)cc3)on2)CC1,22.2
15,COc1ccc(Cn2nnnc2C(c2cccs2)N2CCN(c3ccccc3)CC2)cc1 (stereo not drawn),5.47
16,Cc1ccc(S(=O)(=O)/C(C#N)=C/c2c(N3CCOCC3)nc3c(C)cccn3c2=O)cc1,-56
17,CCCOc1ccc(/C=C/c2c([N+](=O)[O-])c(=O)n(C)c(=O)n2C)cc1,14.5
18,NNC(=S)Nc1ccc(Cl)cc1,14.9
19,CC(C)(C)NC(=S)NC(=O)C12CCC3CC(CC(C3)C1)C2,6.45
20,Cn1c(SC(C(=O)Nc2ccc(F)cc2)c2ccccc2)nc2ccccc21 (stereo not drawn),6.21
21,CCN=C1S/C(=C\c2cn(CC(=O)NCc3ccco3)c3ccccc23)C(=O)N1CC,19.9
